From the antibiotic and cytotoxicity screens of Wong et al. (2023)
Some of the results follow.

System: HSkMC (human skeletal muscle cells)
Assay: cytotoxicity call (relative viability < 0.9)
Settings: 10 µM

SMILES	cytotoxicity call
C[C@H]1CN([C@@H](C)CO)C(=O)Cc2cc(NC(=O)c3ccncc3)ccc2O[C@H]1CN(C)S(=O)(=O)c1cccs1	inactive
C[C@@H]1CN([C@@H](C)CO)C(=O)c2cc(C3=CCCCC3)cnc2O[C@@H]1CN(C)S(=O)(=O)c1cn(C)cn1	inactive
CNCCCN1c2ccccc2CCc2ccccc21.Cl	inactive
C[C@H]1CN([C@@H](C)CO)C(=O)Cc2cc(NC(=O)c3ccncc3)ccc2O[C@@H]1CN(C)Cc1ccc(C(=O)O)cc1	inactive
C[C@@H]1CCCCO[C@@H](CN(C)C(=O)Nc2ccccc2)[C@@H](C)CN([C@H](C)CO)C(=O)c2cc(NC(=O)Nc3ccccc3)ccc2O1	inactive
CNC[C@H]1OCCCC[C@H](C)Oc2ccc(NS(=O)(=O)c3c(C)noc3C)cc2C(=O)N([C@@H](C)CO)C[C@@H]1C	inactive
O=C(C[C@H]1CC[C@@H]2[C@H](COC[C@@H](O)CN2S(=O)(=O)c2ccccc2F)O1)NCc1ccccc1F	inactive
Cc1ccc(S[C@]2(C(=O)NCc3ccccc3)CC(=O)N(Cc3ccccc3)[C@@H]2c2ccc(COC(=O)NCCCCCC(=O)NO)cc2I)cc1	inactive
C[C@@H]1CN([C@@H](C)CO)C(=O)c2cc(-c3cccc(C(=O)N(C)C)c3)cnc2O[C@H]1CN(C)C(=O)Cc1ccccn1	inactive
NC(=O)c1ccc[n+]([C@@H]2O[C@H](COP(=O)(O)OP(=O)(O)OC[C@H]3O[C@@H](n4cnc5c(N)ncnc54)[C@H](O)[C@@H]3O)[C@@H](O)[C@H]2O)c1	inactive
COc1ccc(S(=O)(=O)N(C)C)cc1	inactive
CN1CC2(CCN(C(=O)[C@H]3CCC(=O)N3)CC2)COc2ccccc2S1(=O)=O	inactive
CC(C)CC(=O)C(=O)O	inactive
Cc1noc(C)c1S(=O)(=O)Nc1cccc2c1O[C@@H](CN(C)Cc1ccc3c(c1)OCO3)[C@@H](C)CN([C@H](C)CO)C2=O	inactive
C[C@@H]1CN([C@H](C)CO)C(=O)c2cccc(NS(=O)(=O)c3cn(C)cn3)c2O[C@H]1CN(C)C(=O)Nc1ccc2c(c1)OCO2	inactive
CN(C)CC(=O)N1CC(=O)N2[C@@H](CO)[C@H](c3ccc(C#Cc4cccnc4)cc3)[C@@H]2C1	inactive

SMILES	cytotoxicity call
CO[C@H](CN(C)S(=O)(=O)c1ccc(Cl)cc1)[C@H](C)CN([C@@H](C)CO)S(=O)(=O)c1cccc(Cl)c1	inactive
C[C@@H]1CCCCO[C@@H](CN(C)S(=O)(=O)c2ccc(F)cc2)[C@H](C)CN([C@H](C)CO)C(=O)c2cc(NC(=O)C3CCCCC3)ccc2O1	inactive
COC(=O)C[C@H]1CC[C@@H]2[C@H](COC[C@@H](O)CN2S(=O)(=O)c2ccc(F)cc2)O1	inactive
C[C@H]1CN([C@@H](C)CO)C(=O)c2cc(-c3ccncc3)cnc2O[C@@H]1CN(C)C(=O)Nc1ccc2c(c1)OCO2	inactive
C[C@@H](NC(=O)c1ccnn1C)[C@H]1CCCO1	inactive
C[C@@H]1CCCCO[C@H](CN(C)C(=O)c2ccccc2)[C@@H](C)CN([C@H](C)CO)C(=O)c2cc(NC(=O)C3CCCCC3)ccc2O1	inactive
CC(=O)N[C@@H]1CC[C@@H](CCNC(=O)C2CC2)O[C@H]1CO	inactive
COc1ccc(NC(=O)N(C)C[C@H]2Oc3ccc(NC(=O)Cn4cnnn4)cc3C(=O)N([C@@H](C)CO)C[C@H]2C)cc1	inactive
C[C@H]1CN([C@@H](C)CO)C(=O)c2cccc(NC(=O)c3cnccn3)c2O[C@@H]1CN(C)S(C)(=O)=O	inactive
C[C@@H](N)C1CCC(C(=O)Nc2ccncc2)CC1 (some centres not stated)	inactive
CN(C)CCCNC(=O)C[C@H]1CC[C@H]2[C@@H](COc3ccc(NC(=O)NC4CCCC4)cc3C(=O)N2C)O1	inactive
CC(=O)N1[C@@H]2Cn3c(ccc(-c4ccccc4)c3=O)[C@H]1[C@@H](C(=O)N1CCN(C)CC1)[C@@H]2CO	inactive
C[C@H](CO)N1C[C@H](C)[C@H](CN(C)Cc2ccc(-c3ccccc3)cc2)Oc2ccc(NS(=O)(=O)c3ccc(F)cc3)cc2CC1=O	active
C[C@@H]1CCCCO[C@@H](CN(C)Cc2ccc(Cl)c(Cl)c2)[C@@H](C)CN([C@H](C)CO)C(=O)c2cc(NC(=O)C3CCCCC3)ccc2O1	inactive
COc1cnc(-n2cnc(C)n2)c2c1c(C(=O)C(=O)N1CCN(C(=O)c3ccccc3)CC1)cn2COP(=O)(O)O	inactive
COc1ccc(S(=O)(=O)Nc2ccc3c(c2)C(=O)N([C@H](C)CO)C[C@@H](C)[C@H](CN(C)Cc2ccc(C(=O)O)cc2)OCCCC[C@@H](C)O3)cc1	inactive
